Source: PubChem BioAssay (NCI)
Where “and” joins values, the source holds several entries; their conditions need not be identical. Equal entries are not always repeated.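 Briefly, cells in 96-well plates were exposed to five compound concentrations for 48 h, and endpoints were estimated by linear interpolation. GI50 is the concentration that inhibits growth by half. Definition used: TGI = concentration required for complete inhibition of growth.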

system: NCI-H322M lung; assay: NCI tumour cell line growth inhibition, 48 h

SMILES	TGI	GI50 [µM]
Cc1cc(C)c2cc(N)c(Cl)nc2n1	> 100 µM	
Cn1cc(C2=C(c3cn(CCCO)c4ccccc34)C(=O)NC2=O)c2ccccc21	16.7 µM	3.8
Cc1ccc2nc(NC(=O)C(=O)C3C(=O)NC(=S)NC3=O)sc2c1	> 100 µM	
CC(C)(C)OC(=O)N1CCCC1=O	> 10 µM	
O=c1[nH]c(=S)[nH]c2c1C(c1ccc(Cl)cc1)c1c([nH]c(=S)[nH]c1=O)O2	> 100 µM	
O=Cc1cc2c(s1)C(=O)c1sccc1C2=O	2.98 µM	
Clc1ccc(/C=C2\CCCC3C2=Nc2ccccc2NC3c2ccc(Cl)cc2)cc1 (stereo unspecified)	> 66.5 µM	22
COc1cc(OC)cc(C(=O)NC2=C(Cl)C(=O)c3ccccc3C2=O)c1	20 µM	
CC(C)[Si]1(C(C)C)OCC2OC(N3C(=O)NC(=O)C[C@@H]3C(O)c3ccccc3)CC2O[Si](C(C)C)(C(C)C)O1 (stereo partly specified)	28.3 µM	
O=C1OC2C(O)COC2(O)C1(O)Cc1c[nH]c2ccccc12 (stereo unspecified)	> 100 µM	
COc1ccc(-c2cc(-c3ccc(Nc4ccnc5cc(C(F)(F)F)ccc45)cc3)nc(N)c2C#N)cc1	> 100 µM	
O=C(CC1(O)C(=O)Nc2c(Cl)cc(Cl)cc21)c1ccco1 (stereo unspecified)	> 100 µM	
c1cc(-c2ccsc2-c2ccsc2)cs1	> 100 µM	
CCCCc1ccc(Nc2nc(=S)c3ncn(COCCO)c3[nH]2)cc1	> 100 µM	
Cn1c(=O)c2c(nc3sc4nc5ccccc5nc4n32)n(C)c1=O	> 100 µM	
CN(C)CCNc1ccc(NCCN(C)C)c2c1C(=O)c1ncsc1C2=O	29.5 µM	
C[N+](C)=C/C=C(\Cl)c1ccc2ccccc2c1	33.5 µM	
O=C(Nc1cccc(-c2cccc(F)c2)c1)C1CCN(Cc2cccc3cccnc23)CC1	12.1 µM	3.06
Nc1ccn(C2OC(CO)C3[O][Sn]([c]4ccccc4)([c]4ccccc4)[O]C32)c(=O)n1 (stereo unspecified)		46.8
CCOC(=O)C1C(=O)C(C(=O)OCC)C(c2ccccc2)N(C)C1c1ccccc1 (stereo unspecified)	> 100 µM	
CC1(C)C(OC(=O)c2ccccc2)C[C@]23CCC[C@](C)(C[C@@H](O)C12)C3 (stereo partly specified)	33.1 µM	

SMILES	TGI	GI50 [µM]
C=CCC12CC(=O)CCC1CC(=O)C2 (stereo unspecified)	> 100 µM	
CN1CCc2c(sc3ncn(N)c(=N)c23)C1	> 100 µM	
CCOC(=O)N/N=C(\Cc1ccccc1)OCC	> 100 µM	
Cc1cccc(C)c1NC(=O)C(=O)C(C#N)c1ccccc1Cl (stereo unspecified)	> 100 µM	
CC(C)=CC1CCc2ccccc2N1S(=O)(=O)c1ccc(C)cc1 (stereo unspecified)	> 23.7 µM	
CC1CN1C1=CC(=O)c2c(c(CO)cn2C)C1=O (stereo unspecified)	0.561 µM	0.19
O=c1c2cccnc2[nH]c2ccc3[nH]ncc3c12	> 10 µM	
CC(C)c1cc(C(F)(F)F)nc(NNc2nc(C(C)C)cc(C(F)(F)F)n2)n1	> 100 µM	
c1ccc2c(c1)SC1=Nc3sc4ccccc4[n+]3CN12	> 100 µM	
O=C(CON1C(=O)c2ccccc2C1=O)c1ccccc1	> 100 µM	
CN1CCN(CCn2c3c4ccccc4ccc3c3oc(=O)c4ccccc4c32)CC1	3.11 µM and 19.7 µM	1.72
CCCc1cc(=O)oc2c3c(c4c(c12)OC(C)(C)CC4)O[C@H](C)[C@@H](C)[C@H]3O	30.2 µM	
CCN(CC)c1ccc2cc(-c3nc(-c4ccccc4)n[nH]3)c(=O)oc2c1	81.9 µM	
CC(=O)N=C1C=C(NC(C)=O)C(=O)c2ccccc21	26.7 µM	
CC(=O)c1cc2c(c(O)c1C)C(=O)C(=O)c1c(O)cccc1-2	0.849 µM	0.43
O[N+]1=CC=CCC1=S.On1ccccc1=S.[Zn]	3.11 µM	1.51
COc1cccc2c1-c1ccccc1C2=O	> 100 µM	4.53
NC(=O)N/N=C\c1ccccc1OCc1cccc(COc2ccccc2/C=N\NC(N)=O)n1	> 100 µM	
Cn1ccnc1Sc1ccc(/C=N/NC(=O)c2ccccc2[N+](=O)[O-])cc1[N+](=O)[O-]	> 100 µM	
COC(=O)[C@@H](C[C@H](Cc1ccccc1)NC(=O)c1csc([C@@H](C[C@H](C(C)C)N(C)C(=O)[C@@H](NC(=O)[C@H]2CCCCN2C)C(C)C)OC(C)=O)n1)NC(=O)OCc1ccccc1	> 8.33 µM	0.00212
CC(=O)OC/C=C(\C)CCC(Br)C(C)(C)Br (stereo unspecified)	> 10 µM	
